Measured values reported in publication PMC4336329 (PLoS ONE, 2015).
The campaign covered roughly 310,000 compounds. About 14,000 (4.5%) showed an effect of 50% or more. The effect is printed as a negative number. The list shows a part of the results.

Target: human ether-à-go-go-related gene (hERG) potassium channel (human, UniProt Q12809)
Assay: primary screen, population patch clamp on CHO cells stably expressing hERG
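Also: peak tail current of the secondary pulse compared with the same well before compound.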

human ether-à-go-go-related gene (hERG) potassium channel, sequence (Q12809 whole entry, looked up): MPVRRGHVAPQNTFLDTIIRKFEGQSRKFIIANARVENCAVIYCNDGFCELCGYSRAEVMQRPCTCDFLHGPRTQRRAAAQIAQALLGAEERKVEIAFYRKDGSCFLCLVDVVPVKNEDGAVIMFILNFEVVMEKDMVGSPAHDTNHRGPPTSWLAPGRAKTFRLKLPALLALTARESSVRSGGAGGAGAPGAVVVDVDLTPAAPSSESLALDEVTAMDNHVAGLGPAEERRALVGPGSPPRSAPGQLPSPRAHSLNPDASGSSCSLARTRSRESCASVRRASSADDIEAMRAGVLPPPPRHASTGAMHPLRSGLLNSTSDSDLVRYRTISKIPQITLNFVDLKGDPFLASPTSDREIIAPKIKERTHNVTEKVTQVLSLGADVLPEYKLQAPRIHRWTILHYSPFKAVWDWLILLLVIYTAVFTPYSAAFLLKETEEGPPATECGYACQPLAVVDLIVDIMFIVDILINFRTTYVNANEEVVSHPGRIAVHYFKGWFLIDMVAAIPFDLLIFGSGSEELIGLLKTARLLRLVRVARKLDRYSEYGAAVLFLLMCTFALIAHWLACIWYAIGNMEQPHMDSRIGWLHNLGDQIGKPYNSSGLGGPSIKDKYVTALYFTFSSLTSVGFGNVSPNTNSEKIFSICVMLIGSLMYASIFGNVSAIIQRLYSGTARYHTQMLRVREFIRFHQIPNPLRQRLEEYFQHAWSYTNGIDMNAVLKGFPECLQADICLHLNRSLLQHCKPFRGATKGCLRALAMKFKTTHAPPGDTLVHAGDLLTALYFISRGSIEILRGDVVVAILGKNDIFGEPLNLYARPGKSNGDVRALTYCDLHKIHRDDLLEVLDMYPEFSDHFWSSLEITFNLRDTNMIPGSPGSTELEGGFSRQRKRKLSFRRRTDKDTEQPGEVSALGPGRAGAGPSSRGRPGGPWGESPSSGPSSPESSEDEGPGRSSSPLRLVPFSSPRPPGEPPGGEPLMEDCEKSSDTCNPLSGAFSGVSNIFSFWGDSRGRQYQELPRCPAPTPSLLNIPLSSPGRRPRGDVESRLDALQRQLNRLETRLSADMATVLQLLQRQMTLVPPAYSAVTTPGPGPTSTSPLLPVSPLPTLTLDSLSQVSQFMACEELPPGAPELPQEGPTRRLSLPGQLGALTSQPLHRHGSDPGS

Point of comparison: O=C(c1ccc(Cl)c(S(=O)(=O)N2CCCCCC2)c1)N1CCN(c2ccccn2)CC1, “hERG current change (%, negative = inhibition) at 10uM” value -63.6%. Against it:
- N#C/C(=C/c1ccc(N2CCCCC2)cc1)c1cccc(F)c1 — higher, 2.8%
- OC1CCNC(=S)N1c1ccccc1 (centres unmarked) — higher, 18%
- COc1cccc(NC(=O)CN2C(=O)COc3ccc(S(=O)(=O)N4CCC(C)CC4)cc32)c1 — higher, 4.62%
- CC(C(=O)N1CCCC1)N1CCN(S(=O)(=O)c2ccc(OC(F)(F)F)cc2)CC1 (centres unmarked) — higher, -22.4%
- COC(=O)C1=C(N)Oc2cc(C)n(Cc3ccncc3)c(=O)c2C1c1cccnc1 (centres unmarked) — higher, -14.8%
- CCCn1c(C)cc(/C=C(\C#N)C(=O)OCC(=O)N(C)c2c(N)n(Cc3ccccc3)c(=O)[nH]c2=O)c1C — higher, -5.6%
- Cc1nnc(C)n1N1C(=O)c2cccc3cccc(c23)C1=O — higher, -0.353%
- COc1cccc(OCC(=O)Nc2ccccc2C(=O)Nc2ccc(C(=O)O)cc2)c1 — higher, 23.7%
- O=C(Nc1ccccc1)c1cc(S(=O)(=O)Nc2cccnc2)ccc1Cl — higher, -3.06%
- Cc1ccc(CN2CC(C(=O)NC3CCCC(C)C3C)CC2=O)cc1 (centres unmarked) — higher, -30.1%
- Cc1cc(C)c(NC(=O)CN(C)S(=O)(=O)c2ccc3c(c2)n(C)c(=O)c(=O)n3C)c(C)c1 — higher, 11.6%
- Cc1cc(N/C=C\C(=O)c2ccc(Cl)c(Cl)c2)no1 — higher, 5.3%
- O=C(NCCSc1c[nH]c2ccccc12)c1c(F)cccc1F — higher, -9.73%
- O=C(COc1nnnc2ccccc12)N1CCCc2ccccc21 — higher, -15.1%
- CC(C)OC(=O)C(CC(=O)O)N1CCOCC1 (centres unmarked) — higher, 5.39%
- Cc1cc2c(cn1)C(CCC#N)(CCC#N)c1ccccc1-2 — higher, 12%
- O=S1(=O)[C@H]2C[C@@H]3C=C[C@@]2(CN1Cc1cccc(C(F)(F)F)c1)O3 — higher, 5.74%
- Cc1cc(C)c2c(c1)-c1cc(C)nn1C(c1ccc3c(c1)OCO3)N2 (centres unmarked) — higher, -5.04%
- CCOc1ccc2nc(N3CCOCC3)nc(C)c2c1 — higher, 3.2%
- Cn1c(Cc2ccccc2)n[nH]c1=S — higher, 24.8%
- O=C(NCCCn1ccnc1)c1ccc2nccnc2c1 — higher, 4.78%
- CCOC(=O)C1=C(CC)NC2=C(C(=O)CCC2)C1c1ccc(OC)c(OC)c1 (centres unmarked) — higher, -8.32%
- Cn1c(N)c(C(=O)NCc2ccccc2)sc1=S — higher, 7.42%
- CC(=O)NC1CC2CCCC(C1)N2CC(=O)Nc1ccccc1 (centres unmarked) — higher, 4.65%
- CC(C)CC(NC(=O)C1CCCCC1)C(=O)NCc1ccccn1 (centres unmarked) — higher, 17.6%
- CC(C)Oc1ccc(/C=N/NC(=O)c2nnn(-c3nonc3N)c2CN(C)C2CCCCC2)cc1 — higher, -0.892%
- N#Cc1c(C(F)(F)F)cc(-c2ccc(Cl)cc2)[nH]c1=O — higher, 29.2%
- O=C(NC1CC1)C1=C[C@@H](c2ccc(C(F)(F)F)cc2)C[C@@H](OCc2ccc(CO)cc2)O1 — higher, -63.2%
- CCOC(=O)c1c(-c2ccc(F)cc2)csc1/N=C/N(C)C — higher, 2.67%
- O=[N+]([O-])c1ccc(/C=N/NC(=S)Nc2ccc(Cl)cc2Cl)s1 — higher, 11.3%
- CCOc1ccc(CNc2nnnn2C)cc1 — higher, 14%
- O=C(NCC1COc2ccccc2O1)c1cccc(S(=O)(=O)N2CCOCC2)c1 (centres unmarked) — higher, -26.9%
- CCCCCNC(=O)c1cccnc1SCC(=O)Nc1ccccc1OC — lower, -65.6%
- COc1ccc(C2CC(=O)N3CN(c4ccc(C)c(Cl)c4)CSC3=C2C#N)cc1 (centres unmarked) — higher, 18.1%
- O=C(Nc1ccc(Oc2nnc(-c3ccccc3)c3ccccc23)cc1)c1ccccc1 — higher, -2.16%
- Cc1sc2ncnc(NC3CCN(Cc4ccccc4)CC3)c2c1C — lower, -79.6%
- CCOc1cc(/C=N/N=C2/NC(=O)C(CC(=O)O)S2)ccc1OCc1ccc(Cl)cc1Cl (centres unmarked) — higher, 18%
- CCOC(=O)N1CCN(C(=O)c2n[nH]c(=O)c3ccccc23)CC1 — higher, 3.8%
- CCOC(=O)C1CCN(Cc2oc(CO)cc(=O)c2O)CC1 — higher, -2.99%
- CCn1c(-c2csc(-c3ccccc3)n2)n[nH]c1=S — higher, 13%
- CCCCCc1cc(=O)oc2c(C(CCN3CCCC3)c3ccc(N(C)C)cc3)c(OC)cc(OC)c12 (centres unmarked) — higher, -57.5%
- Cc1noc(C)c1CSc1nnc(-c2ccncc2)n1-c1cccc(Cl)c1C — higher, -32.1%
- CSc1cccc(NC(=O)c2ccc(CN3CCc4ccccc4C3)cc2)c1 — higher, -1.52%
- CCOc1ccc(OCC(=O)Nc2ccc(S(N)(=O)=O)cc2)cc1 — higher, -7.32%
- O=C(CP(=O)(c1ccccc1)c1ccccc1)Nc1nc2ccccc2s1 — higher, 16.1%
- Cc1cc(=O)oc2c3c4c(cc12)OCCN4CCC3 — higher, -20.7%
- CCOC(=O)C(C)Sc1nc(N)c(NC(=O)c2ccc(OC)c(OC)c2)c(=O)[nH]1 (centres unmarked) — higher, -9.72%
- O=C(CNS(=O)(=O)c1cccc(Cl)c1)Nc1ccc(-c2nc3ccccc3s2)cc1 — higher, 10.9%
- Cc1cccc(-n2c(N)c(-c3nc4ccccc4n3C)c3nc4ccccc4nc32)c1 — higher, -13.3%
- O=C(NCc1ccc2c(c1)OCO2)c1ccc(COc2cccc(Cl)c2)o1 — higher, 2.23%
- O=C1c2ccccc2S(=O)(=O)N1Cc1nc2ccccc2s1 — higher, -5.83%
- COc1ccccc1CN(C(=O)CNC(=O)c1ccco1)C(C(=O)NCC1CCCO1)c1ccc(OC)c(OC)c1 (centres unmarked) — higher, 20.8%
- CC(c1ccccc1)c1nnc(N)s1 (centres unmarked) — higher, 16.6%
- CCCCOC(=O)Nc1ccc2c(C)cc(=O)oc2c1 — higher, -16.9%
- COc1ccc(S(=O)(=O)N2CCN(Cc3cccc(Cl)c3)CC2)cc1 — higher, -0.0755%
- Cc1cccc(NC(=O)c2cc(Cl)nc3ccccc23)n1 — higher, -31.7%
- C=C(C)Cn1c(=O)c2c(nc3n2CCCN3Cc2ccccc2)n(C)c1=O — higher, -17.9%
- N#Cc1c(-c2ccccc2)nc(-c2cccnc2)[nH]c1=O — higher, 17.6%
- CCN(C(=O)COC(=O)c1ccc(Cl)cc1N)C1CCCCC1 — higher, -9.34%
- O=C(Nc1ccc(Cl)cc1)c1ccc2c(c1)OCO2 — higher, 11.8%
- CCNC(=S)NN(c1ccccc1)c1ccccc1 — higher, -4.36%
- Cc1ccc(S(=O)(=O)C2C(=O)NC3(C)CC2c2ccccc2O3)cc1 (centres unmarked) — higher, -29.9%
- CS(=O)(=O)c1ccc(Cl)c(NC(=O)COC(=O)CNC(=O)c2cccs2)c1 — higher, 10.6%
- CCc1ccc(-c2cc(C)no2)cc1S(=O)(=O)N1CC(=O)Nc2ccccc21 — higher, 11.5%
- COc1ccc([N+](=O)[O-])cc1NC(=O)C1CCCNC1=O (centres unmarked) — higher, -3.85%
- Cc1ccccc1NC(=S)NC(=O)c1cc(-c2ccccc2)nc2ccccc12 — higher, 5.16%
- CC(=O)OCC(=O)[C@H]1CC[C@H]2[C@@H]3CCC4=CC(=O)CC[C@]4(C)[C@H]3CC[C@]12C — higher, -8.11%
- CCc1nc(SCC(=O)NC2CCCC2)c2oc3ccccc3c2n1 — higher, 3.41%
- Cc1ccc(N2C(=O)c3ccc(C(=O)NCCN4CCOCC4)cc3C2=O)cc1 — higher, -6.85%
- COc1ccc(-c2cn[nH]c2-c2ccc(OCc3ccc(F)cc3)cc2O)cc1OC — higher, 13.3%
- CCOC(=O)C1=C(C(F)(F)F)Nc2ncnn2C1c1cc(OC)c(OC)cc1OC (centres unmarked) — higher, 3.22%
- CC(C)c1ccc(OCC(=O)N2CCN(C(=O)c3ccco3)CC2)cc1 — higher, -49.1%
- COc1cccc(C(=O)NNC(=S)NC2CCCCC2)c1 — higher, 8.31%
- COc1cc(CN2CCCN(C)CC2)cc([N+](=O)[O-])c1O — higher, 21.9%
- CSc1nc(Sc2cccc(Cl)c2)c2ccccc2n1 — higher, 6.5%
- O=C(CCCC1=NS(=O)(=O)c2ccccc2N1)N1CCN(c2ccc([N+](=O)[O-])cc2)CC1 — higher, -1.34%
- Cc1nnc(SCC(=O)Nc2ccc(Br)cn2)[nH]c1=O — higher, 9.72%
- COC(=O)C1CN(C(=O)COc2ccc(Cl)cc2Cl)c2ccccc2O1 (centres unmarked) — higher, -2.51%
- O=C1C(C=Nc2ccc(F)cc2)=C(O)c2ccccc21 — higher, 6.75%
- O=C(NC(Cc1c[nH]c2ccccc12)C(=O)O)/C(=C/c1ccco1)NC(=O)c1ccccc1 (centres unmarked) — higher, 15%
- COc1ccc(OC)c(S(=O)(=O)Nc2cccc(-c3ccc(N4CCCCCC4)nn3)c2)c1 — higher, 18.9%
- O=C(Oc1coc(CSc2nnc(NC(=O)C3CC3)s2)cc1=O)c1c(F)cccc1F — higher, 1.38%
- CCCc1nn2c(=O)c(C(c3ccc(C)cc3)c3c(O)nc4sc(CCC)nn4c3=O)c(O)nc2s1 — higher, 13.2%
- CC(=O)Nc1ccc2nc(NC(=O)CN3CCOCC3)sc2c1 — higher, 18.7%
- COc1ccccc1NC(=O)C(=O)NCCC1CCCCN1S(=O)(=O)c1ccc(F)cc1 (centres unmarked) — higher, 3.36%
